# Data reported in PMC5392987.
# The chains behind the UniProt entries cited, without tags or fusion partners.
# UniProt A1ZAW0: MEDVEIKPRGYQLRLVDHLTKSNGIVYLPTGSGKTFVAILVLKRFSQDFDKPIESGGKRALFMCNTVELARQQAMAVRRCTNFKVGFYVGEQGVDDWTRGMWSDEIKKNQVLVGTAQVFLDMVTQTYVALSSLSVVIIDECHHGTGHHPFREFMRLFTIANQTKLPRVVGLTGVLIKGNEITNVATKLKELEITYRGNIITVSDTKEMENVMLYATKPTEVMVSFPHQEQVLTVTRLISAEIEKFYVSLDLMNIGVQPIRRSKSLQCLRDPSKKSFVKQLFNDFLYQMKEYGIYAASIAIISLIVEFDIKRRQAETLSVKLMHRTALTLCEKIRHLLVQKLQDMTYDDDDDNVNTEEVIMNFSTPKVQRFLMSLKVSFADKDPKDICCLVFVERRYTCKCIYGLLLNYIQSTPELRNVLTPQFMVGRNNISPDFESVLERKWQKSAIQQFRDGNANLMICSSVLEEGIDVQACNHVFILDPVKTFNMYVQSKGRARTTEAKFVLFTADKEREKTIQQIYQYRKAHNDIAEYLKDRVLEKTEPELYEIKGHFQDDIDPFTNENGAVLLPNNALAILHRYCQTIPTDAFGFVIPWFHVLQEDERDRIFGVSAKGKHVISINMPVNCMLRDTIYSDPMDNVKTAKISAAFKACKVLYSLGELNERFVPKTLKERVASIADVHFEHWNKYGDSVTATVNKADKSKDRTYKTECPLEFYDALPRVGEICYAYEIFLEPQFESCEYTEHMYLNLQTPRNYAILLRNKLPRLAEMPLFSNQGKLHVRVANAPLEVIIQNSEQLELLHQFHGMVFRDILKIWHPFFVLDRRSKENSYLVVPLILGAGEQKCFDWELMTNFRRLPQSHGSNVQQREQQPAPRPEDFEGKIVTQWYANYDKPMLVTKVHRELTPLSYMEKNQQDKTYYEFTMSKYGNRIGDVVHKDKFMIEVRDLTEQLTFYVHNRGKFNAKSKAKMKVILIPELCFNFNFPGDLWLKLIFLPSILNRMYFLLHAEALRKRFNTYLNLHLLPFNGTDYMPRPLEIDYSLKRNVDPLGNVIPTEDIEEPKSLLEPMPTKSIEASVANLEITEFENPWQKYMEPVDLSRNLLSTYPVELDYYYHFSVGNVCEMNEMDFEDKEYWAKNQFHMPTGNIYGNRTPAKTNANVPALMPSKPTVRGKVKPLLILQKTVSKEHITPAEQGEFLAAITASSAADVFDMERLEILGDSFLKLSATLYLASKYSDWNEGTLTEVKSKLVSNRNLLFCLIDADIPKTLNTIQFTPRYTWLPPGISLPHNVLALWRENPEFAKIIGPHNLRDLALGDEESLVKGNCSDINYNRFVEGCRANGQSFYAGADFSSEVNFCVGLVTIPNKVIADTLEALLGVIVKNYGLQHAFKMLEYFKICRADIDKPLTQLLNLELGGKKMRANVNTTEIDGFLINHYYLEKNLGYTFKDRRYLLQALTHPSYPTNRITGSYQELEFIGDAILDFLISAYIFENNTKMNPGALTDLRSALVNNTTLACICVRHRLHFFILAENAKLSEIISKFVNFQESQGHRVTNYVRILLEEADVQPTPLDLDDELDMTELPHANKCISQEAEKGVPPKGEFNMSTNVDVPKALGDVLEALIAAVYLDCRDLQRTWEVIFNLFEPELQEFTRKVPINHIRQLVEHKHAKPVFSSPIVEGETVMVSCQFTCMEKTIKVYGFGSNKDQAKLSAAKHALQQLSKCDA
# Results are given in words; binding and its absence hold for the method and conditions named. In cells and extracts the contact can be indirect. Some entries that bind do so weakly or less than the wild type. For some assays here: Sequences can lack the tags named with a protein.
# T1: HA-Symp (272-1165) (Drosophila melanogaster) (UniProt Q8MSU4)
# T1 sequence: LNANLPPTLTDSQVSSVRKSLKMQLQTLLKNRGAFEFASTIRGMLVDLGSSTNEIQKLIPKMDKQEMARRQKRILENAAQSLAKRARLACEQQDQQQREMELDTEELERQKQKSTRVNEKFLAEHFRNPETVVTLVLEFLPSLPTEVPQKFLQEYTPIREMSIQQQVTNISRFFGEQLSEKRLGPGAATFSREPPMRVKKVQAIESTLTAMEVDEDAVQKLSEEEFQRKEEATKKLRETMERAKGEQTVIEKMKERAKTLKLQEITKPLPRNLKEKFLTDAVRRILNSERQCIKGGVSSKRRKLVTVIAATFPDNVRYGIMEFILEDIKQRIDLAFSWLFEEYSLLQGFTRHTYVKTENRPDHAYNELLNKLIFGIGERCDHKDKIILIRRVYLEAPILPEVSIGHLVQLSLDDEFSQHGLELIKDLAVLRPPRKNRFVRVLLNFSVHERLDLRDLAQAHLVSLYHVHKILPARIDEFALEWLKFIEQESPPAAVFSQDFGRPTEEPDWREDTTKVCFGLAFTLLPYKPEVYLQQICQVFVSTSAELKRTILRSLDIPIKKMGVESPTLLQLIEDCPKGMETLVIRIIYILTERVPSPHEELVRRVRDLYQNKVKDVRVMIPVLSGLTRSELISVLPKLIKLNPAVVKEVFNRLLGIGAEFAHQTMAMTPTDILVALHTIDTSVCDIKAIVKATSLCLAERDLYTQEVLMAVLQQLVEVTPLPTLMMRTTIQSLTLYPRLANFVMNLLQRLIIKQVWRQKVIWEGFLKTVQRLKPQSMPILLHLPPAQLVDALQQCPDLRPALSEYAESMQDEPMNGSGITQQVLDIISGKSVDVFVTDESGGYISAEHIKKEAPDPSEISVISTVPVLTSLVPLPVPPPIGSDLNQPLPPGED
# T2: Symplekin (endogenous) (Drosophila melanogaster (endogenous in Dmel-2 cells)) (UniProt Q8MSU4)
# T2 sequence: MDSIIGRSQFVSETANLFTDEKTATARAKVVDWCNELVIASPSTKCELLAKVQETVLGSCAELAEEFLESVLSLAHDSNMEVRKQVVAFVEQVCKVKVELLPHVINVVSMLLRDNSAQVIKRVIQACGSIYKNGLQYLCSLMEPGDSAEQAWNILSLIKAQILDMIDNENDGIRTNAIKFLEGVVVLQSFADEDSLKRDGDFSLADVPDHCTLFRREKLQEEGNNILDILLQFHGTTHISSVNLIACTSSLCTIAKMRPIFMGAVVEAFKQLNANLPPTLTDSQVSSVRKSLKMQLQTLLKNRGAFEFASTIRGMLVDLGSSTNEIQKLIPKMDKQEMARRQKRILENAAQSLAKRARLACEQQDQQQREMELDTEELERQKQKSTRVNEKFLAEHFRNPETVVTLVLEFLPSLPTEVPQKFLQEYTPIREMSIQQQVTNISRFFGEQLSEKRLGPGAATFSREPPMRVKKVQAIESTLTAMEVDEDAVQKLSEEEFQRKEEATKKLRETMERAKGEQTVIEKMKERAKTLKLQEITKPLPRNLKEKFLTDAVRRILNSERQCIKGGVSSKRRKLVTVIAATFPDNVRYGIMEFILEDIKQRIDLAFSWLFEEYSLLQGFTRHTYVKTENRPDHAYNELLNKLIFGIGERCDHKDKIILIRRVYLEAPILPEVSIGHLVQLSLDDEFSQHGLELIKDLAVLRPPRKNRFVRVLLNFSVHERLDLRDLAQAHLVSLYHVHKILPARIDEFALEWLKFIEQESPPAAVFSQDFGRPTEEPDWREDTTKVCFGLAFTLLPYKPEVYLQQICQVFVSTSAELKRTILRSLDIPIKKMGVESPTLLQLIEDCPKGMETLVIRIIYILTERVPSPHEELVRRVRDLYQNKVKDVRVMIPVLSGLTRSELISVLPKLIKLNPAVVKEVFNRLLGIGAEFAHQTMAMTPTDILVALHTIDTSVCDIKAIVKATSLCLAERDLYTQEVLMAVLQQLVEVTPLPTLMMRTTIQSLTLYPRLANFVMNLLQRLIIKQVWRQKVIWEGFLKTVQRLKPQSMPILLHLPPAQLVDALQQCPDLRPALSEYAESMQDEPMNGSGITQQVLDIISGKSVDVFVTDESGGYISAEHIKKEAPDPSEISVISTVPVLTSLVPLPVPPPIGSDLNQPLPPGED
# Experiments:
# [1] = target: T1, HA-Symp (272-1165) (Drosophila melanogaster); assay: co-IP; Dmel-2 cells expressing HA-Symp (272-1165), endogenous Symplekin RNAi-depleted; IP and western blot
# [2] = target: T2, Symplekin (endogenous) (Drosophila melanogaster (endogenous in Dmel-2 cells)); assay: co-IP; endogenous Dcr2 or Symplekin immunoprecipitated from 175 ug refined nuclear extract of Dmel-2 cells, dialysed in Buffer D (20 mM HEPES/KOH pH 7.9, 20% glycerol, 100 mM KCl, 0.2 mM EDTA, 0.5 mM DTT); western blot
# [3] = target: Dicer2 (endogenous) (Drosophila melanogaster (endogenous in Dmel-2 cells)) (UniProt A1ZAW0); assay: co-IP; endogenous Dcr2 immunoprecipitated from 100 ug crude nuclear extract of Drosophila culture cells; western blot; beads and anti-Myc as negative controls
# [4] = target: Dicer2 (endogenous) (Drosophila melanogaster (endogenous in Dmel-2 cells)) (UniProt A1ZAW0); assay: co-IP; endogenous Dcr2 or Symplekin immunoprecipitated from 175 ug refined nuclear extract of Dmel-2 cells, dialysed in Buffer D (20 mM HEPES/KOH pH 7.9, 20% glycerol, 100 mM KCl, 0.2 mM EDTA, 0.5 mM DTT); western blot
# [5] = target: Dicer2 (endogenous) (Drosophila melanogaster (endogenous in Dmel-2 cells)) (UniProt A1ZAW0); assay: co-IP; endogenous Dcr2 or Symplekin immunoprecipitated from 175 ug refined cytoplasmic extract of Dmel-2 cells, dialysed in Buffer D (20 mM HEPES/KOH pH 7.9, 20% glycerol, 100 mM KCl, 0.2 mM EDTA, 0.5 mM DTT); western blot
# [6] = target: Dicer2 (endogenous) (Drosophila melanogaster (endogenous in Dmel-2 cells)) (UniProt A1ZAW0); assay: co-IP; endogenous Dcr2 immunoprecipitated from Dmel-2 cells stably expressing HA-tagged proteins; western blot for HA
binding [1],binding [2],binding [3],binding [4],binding [5],binding [6],Binder
binds,binds,,,,,"CPSF100 (endogenous) (protein, UniProt Q9V3D6 1-756) MTSIIKLHTISGAMDESPPCYILQIDDVRILLDCGWDEKFDANFIKELKRQVHTLDAVLLSHPDAYHLGALPYLVGKLGLNCPIYATIPVFKMGQMFMYDLYMSHFNMGDFDLFSLDDVDTAFEKITQLKYNQTVSLKDKGYGISITPLNAGHMIGGTIWKIVKVGEEDIVYATDFNHKKERHLSGCELDRLQRPSLLITDAYNAQYQQARRRARDEKLMTNILQTVRNNGNVLIAVDTAGRVLELAHMLDQLWKNKESGLMAYSLALLNNVSYNVIEFAKSQIEWMSDKLTKAFEGARNNPFQFKHIQLCHSLADVYKLPAGPKVVLASTPDLESGFTRDLFVQWASNANNSIILTTRTSPGTLAMELVENCAPGKQIELDVRRRVDLEGAELEEYLRTQGEKLNPLIVKPDVEEESSSESEDDIEMSVITGKHDIVVRPEGRHHSGFFKSNKRHHVMFPYHEEKVKCDEYGEIINLDDYRIADATGYEFVPMEEQNKENVKKEEPGIGAEQQANGGIVDNDVQLLEKPTKLISQRKTIEVNAQVQRIDFEGRSDGESMLKILSQLRPRRVIVIHGTAEGTQVVARHCEQNVGARVFTPQKGEIIDVTSEIHIYQVRLTEGLVSQLQFQKGKDAEVAWVDGRLGMRVKAIEAPMDVTVEQDASVQEGKTLTLETLADDEIPIHNSVLINELKLSDFKQTLMRNNINSEFSGGVLWCSNGTLALRRVDAGKVAMEGCLSEEYYKIRELLYEQYAIV"
,no binding,binds,binds,binds,,"R2D2 (endogenous) (protein, UniProt Q9VLW8 1-311) MDNKSAVSALQEFCARTQINLPTYSFIPGEDGGYVCKVELLEIEALGNGRSKRDAKHLAASNILRKIQLLPGIHGLMKDSTVGDLDEELTNLNRDMVKELRDYCVRREMPLPCIEVVQQSGTPSAPEFVACCSVASIVRYGKSDKKKDARQRAAIEMLALISSNSDNLRPDQMQVASTSKLKVVDMEESMEELEALRRKKFTTYWELKEAGSVDHTGMRLCDRHNYFKNFYPTLKKEAIEAINSDEYESSKDKAMDVMSSLKITPKISEVESSSLVPLLSVELNCAFDVVLMAKETDIYDHIIDYFRTMLI"
binds,binds,,,,,"CPSF73 (endogenous) (protein, UniProt Q9VE51 1-684) MTQATGDARMPDEESDLLQIKPLGAGQEVGRSCIMLEFKGKKIMLDCGIHPGLSGMDALPYVDLIEADEIDLLFISHFHLDHCGALPWFLMKTSFKGRCFMTHATKAIYRWMLSDYIKISNISTEQMLYTEADLEASMEKIETINFHEERDVMGVRFCAYIAGHVLGAAMFMIEIAGIKILYTGDFSRQEDRHLMAAEVPPMKPDVLITESTYGTHIHEKREDRENRFTSLVQKIVQQGGRCLIPVFALGRAQELLLILDEFWSQNPDLHEIPIYYASSLAKKCMAVYQTYINAMNDRIRRQIAVNNPFVFRHISNLKGIDHFEDIGPCVIMASPGMMQSGLSRELFESWCTDPKNGVIIAGYCVEGTLAKAVLSEPEEITTLSGQKLPLNMSVDYISFSAHTDYQQTSEFIRLLKPTHVVLVHGEQNEMSRLKLALQREYEADASTDIKFYNPRNTHAVDLYFRGEKTAKVMGSLAAKNSEVGSKLSGVLVKRDFKYHLLAPSDLGKYTDMSMSVVTQRQSIPWGSSLSTLELLLDRIGAGCVEVLEAERKLRVFGCIELTVEQKIIVMEWQATHVNDVYADAVLACIMQSELGGTNLKGATKQTKSEDSRFRECLIETLQDTFGDNCVPKMFEGDLLPVTVSGKRAEINLETLAISCAEDDVLRQMLNTTVQKLHQTLVSAL"
,,,,,binds,"HA-Symp (1-271) (domain or fragment, UniProt Q8MSU4 1-271) MDSIIGRSQFVSETANLFTDEKTATARAKVVDWCNELVIASPSTKCELLAKVQETVLGSCAELAEEFLESVLSLAHDSNMEVRKQVVAFVEQVCKVKVELLPHVINVVSMLLRDNSAQVIKRVIQACGSIYKNGLQYLCSLMEPGDSAEQAWNILSLIKAQILDMIDNENDGIRTNAIKFLEGVVVLQSFADEDSLKRDGDFSLADVPDHCTLFRREKLQEEGNNILDILLQFHGTTHISSVNLIACTSSLCTIAKMRPIFMGAVVEAFKQ"
,,binds,binds,,,"Symplekin (endogenous) (protein, UniProt Q8MSU4 1-1165) MDSIIGRSQFVSETANLFTDEKTATARAKVVDWCNELVIASPSTKCELLAKVQETVLGSCAELAEEFLESVLSLAHDSNMEVRKQVVAFVEQVCKVKVELLPHVINVVSMLLRDNSAQVIKRVIQACGSIYKNGLQYLCSLMEPGDSAEQAWNILSLIKAQILDMIDNENDGIRTNAIKFLEGVVVLQSFADEDSLKRDGDFSLADVPDHCTLFRREKLQEEGNNILDILLQFHGTTHISSVNLIACTSSLCTIAKMRPIFMGAVVEAFKQLNANLPPTLTDSQVSSVRKSLKMQLQTLLKNRGAFEFASTIRGMLVDLGSSTNEIQKLIPKMDKQEMARRQKRILENAAQSLAKRARLACEQQDQQQREMELDTEELERQKQKSTRVNEKFLAEHFRNPETVVTLVLEFLPSLPTEVPQKFLQEYTPIREMSIQQQVTNISRFFGEQLSEKRLGPGAATFSREPPMRVKKVQAIESTLTAMEVDEDAVQKLSEEEFQRKEEATKKLRETMERAKGEQTVIEKMKERAKTLKLQEITKPLPRNLKEKFLTDAVRRILNSERQCIKGGVSSKRRKLVTVIAATFPDNVRYGIMEFILEDIKQRIDLAFSWLFEEYSLLQGFTRHTYVKTENRPDHAYNELLNKLIFGIGERCDHKDKIILIRRVYLEAPILPEVSIGHLVQLSLDDEFSQHGLELIKDLAVLRPPRKNRFVRVLLNFSVHERLDLRDLAQAHLVSLYHVHKILPARIDEFALEWLKFIEQESPPAAVFSQDFGRPTEEPDWREDTTKVCFGLAFTLLPYKPEVYLQQICQVFVSTSAELKRTILRSLDIPIKKMGVESPTLLQLIEDCPKGMETLVIRIIYILTERVPSPHEELVRRVRDLYQNKVKDVRVMIPVLSGLTRSELISVLPKLIKLNPAVVKEVFNRLLGIGAEFAHQTMAMTPTDILVALHTIDTSVCDIKAIVKATSLCLAERDLYTQEVLMAVLQQLVEVTPLPTLMMRTTIQSLTLYPRLANFVMNLLQRLIIKQVWRQKVIWEGFLKTVQRLKPQSMPILLHLPPAQLVDALQQCPDLRPALSEYAESMQDEPMNGSGITQQVLDIISGKSVDVFVTDESGGYISAEHIKKEAPDPSEISVISTVPVLTSLVPLPVPPPIGSDLNQPLPPGED"
